# Source: the supplement of paper PMC8728848
# The other results are listed elsewhere or left out.
# Columns and labels:
# Experiment in all cases: glycan array binding signal (z-score within array); higher = stronger binding
# Conditions in all cases: glycan notation: IUPAC condensed, linker removed
# GlcNAc(b1-6)GalNAc = molecular target: GlcNAc(b1-6)GalNAc
# Method in brief: (§1)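 Arrays were curated from the Consortium for Functional Glycomics database, 3228 in total, and kept only where the protein sequence was available. Binding is expressed as a within-array Z-score. This score was averaged across arrays of the same protein sequence at different concentrations or buffers and across linkers, and negative values can be read as non-binding.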
# GlcNAc3Prop(b1-4)GlcNAc = molecular target: GlcNAc3Prop(b1-4)GlcNAc
# Method in brief: as §1
# Kdn(a2-3)Gal(b1-3)GlcNAc = molecular target: Kdn(a2-3)Gal(b1-3)GlcNAc
# Method in brief: as §1
# Kdn(a2-3)Gal(b1-4)GlcNAc = molecular target: Kdn(a2-3)Gal(b1-4)GlcNAc
# Method in brief: as §1
# [1] = molecular target: Man(a1-2)Man(a1-2)Man(a1-3)Man
# Method in brief: as §1
# [2] = molecular target: Man(a1-2)Man(a1-2)Man(a1-6)[Man(a1-3)]Man
# Method in brief: as §1
# Man(a1-2)Man(a1-3)Man = molecular target: Man(a1-2)Man(a1-3)Man
# Method in brief: as §1
# [3] = molecular target: Man(a1-2)Man(a1-3)[Man(a1-2)Man(a1-6)]Man
# Method in brief: as §1
# [4] = molecular target: Man(a1-2)Man(a1-3)[Man(a1-2)Man(a1-6)]Man(a1-6)[Man(a1-2)Man(a1-2)Man(a1-3)]Man
# Method in brief: as §1
# [5] = molecular target: Man(a1-2)Man(a1-3)[Man(a1-2)Man(a1-6)]Man(a1-6)[Man(a1-2)Man(a1-2)Man(a1-3)]Man(b1-4)GlcNAc(b1-4)GlcNAc
# Method in brief: as §1
# [6] = molecular target: Man(a1-2)Man(a1-3)[Man(a1-6)]Man(a1-6)[Man(a1-2)Man(a1-3)]Man(b1-4)GlcNAc(b1-4)GlcNAc
# Method in brief: as §1
# [7] = molecular target: Man(a1-2)Man(a1-6)[Man(a1-3)]Man(a1-6)[Man(a1-2)Man(a1-2)Man(a1-3)]Man
# Method in brief: as §1
# [8] = molecular target: Man(a1-2)Man(a1-6)[Man(a1-3)]Man(a1-6)[Man(a1-2)Man(a1-2)Man(a1-3)]Man(b1-4)GlcNAc(b1-4)GlcNAc
# Method in brief: as §1
# Man(a1-3)[Man(a1-6)]Man = molecular target: Man(a1-3)[Man(a1-6)]Man
# Method in brief: as §1
# [9] = molecular target: Man(a1-3)[Man(a1-6)]Man(a1-6)[Man(a1-2)Man(a1-3)]Man(b1-4)GlcNAc(b1-4)GlcNAc
# Method in brief: as §1
# [10] = molecular target: Man(a1-3)[Man(a1-6)]Man(a1-6)[Man(a1-3)]Man
# Method in brief: as §1
# [11] = molecular target: Man(a1-3)[Man(a1-6)]Man(a1-6)[Man(a1-3)]Man(b1-4)GlcNAc(b1-4)GlcNAc
# Method in brief: as §1
# [12] = molecular target: Man(a1-3)[Man(a1-6)]Man(b1-4)GlcNAc(b1-4)GlcNAc
# Method in brief: as §1
# Man(a1-6)Man = molecular target: Man(a1-6)Man
# Method in brief: as §1
# Man(b1-4)GlcNAc = molecular target: Man(b1-4)GlcNAc
# Method in brief: as §1
# Neu5Ac(a2-3)Gal = molecular target: Neu5Ac(a2-3)Gal
# Method in brief: as §1
# [13] = molecular target: Neu5Ac(a2-3)Gal(b1-3)GalNAc
# Method in brief: as §1
# [14] = molecular target: Neu5Ac(a2-3)Gal(b1-3)GalNAc(b1-3)Gal(a1-4)Gal(b1-4)Glc
# Method in brief: as §1
# [15] = molecular target: Neu5Ac(a2-3)Gal(b1-3)GalNAc(b1-3)Gal(b1-4)GlcNAc
# Method in brief: as §1
# [16] = molecular target: Neu5Ac(a2-3)Gal(b1-3)GalNAc(b1-4)[Neu5Ac(a2-3)]Gal(b1-4)Glc
# Method in brief: as §1
# [17] = molecular target: Neu5Ac(a2-3)Gal(b1-3)GalNAc6S
# Method in brief: as §1
# [18] = molecular target: Neu5Ac(a2-3)Gal(b1-3)GlcNAc
# Method in brief: as §1
# [19] = molecular target: Neu5Ac(a2-3)Gal(b1-3)GlcNAc(b1-3)Gal(b1-3)GlcNAc
# Method in brief: as §1
# [20] = molecular target: Neu5Ac(a2-3)Gal(b1-3)GlcNAc6S
# Method in brief: as §1
# [21] = molecular target: Neu5Ac(a2-3)Gal(b1-3)[Fuc(a1-4)]GlcNAc
# Method in brief: as §1
# [22] = molecular target: Neu5Ac(a2-3)Gal(b1-3)[Fuc(a1-4)]GlcNAc(b1-3)Gal(b1-4)[Fuc(a1-3)]GlcNAc
# Method in brief: as §1
# [23] = molecular target: Neu5Ac(a2-3)Gal(b1-3)[Neu5Ac(a2-3)Gal(b1-4)]GlcNAc
# Method in brief: as §1
# [24] = molecular target: Neu5Ac(a2-3)Gal(b1-3)[Neu5Ac(a2-6)]GalNAc
# Method in brief: as §1
# Neu5Ac(a2-3)Gal(b1-4)Glc = molecular target: Neu5Ac(a2-3)Gal(b1-4)Glc
# Method in brief: as §1
# [25] = molecular target: Neu5Ac(a2-3)Gal(b1-4)GlcNAc
# Method in brief: as §1
# [26] = molecular target: Neu5Ac(a2-3)Gal(b1-4)GlcNAc(b1-2)Man(a1-3)[GlcNAc(b1-2)Man(b1-4)GlcNAc(b1-2)Man(a1-6)]Man(b1-4)GlcNAc(b1-4)GlcNAc
# Method in brief: as §1
# [27] = molecular target: Neu5Ac(a2-3)Gal(b1-4)GlcNAc(b1-2)Man(a1-3)[Neu5Ac(a2-6)Gal(b1-4)GlcNAc(b1-2)Man(a1-6)]Man(b1-4)GlcNAc(b1-4)GlcNAc
# Method in brief: as §1
# [28] = molecular target: Neu5Ac(a2-3)Gal(b1-4)GlcNAc(b1-3)Gal(b1-3)GlcNAc
# Method in brief: as §1
# [29] = molecular target: Neu5Ac(a2-3)Gal(b1-4)GlcNAc(b1-3)Gal(b1-4)GlcNAc
# Method in brief: as §1
# [30] = molecular target: Neu5Ac(a2-3)Gal(b1-4)GlcNAc(b1-3)Gal(b1-4)GlcNAc(b1-3)Gal(b1-4)GlcNAc
# Method in brief: as §1
# [31] = molecular target: Neu5Ac(a2-3)Gal(b1-4)GlcNAc(b1-3)Gal(b1-4)[Fuc(a1-3)]GlcNAc
# Method in brief: as §1
# [32] = molecular target: Neu5Ac(a2-3)Gal(b1-4)GlcNAc(b1-6)[Gal(b1-3)]GalNAc
# Method in brief: as §1
# [33] = molecular target: Neu5Ac(a2-3)Gal(b1-4)GlcNAc(b1-6)[Neu5Ac(a2-3)Gal(b1-3)]GalNAc
# Method in brief: as §1
# [34] = molecular target: Neu5Ac(a2-3)Gal(b1-4)GlcNAc6S
# Method in brief: as §1
binder,measurement,setting,value
"Ficolin A (Rattus norvegicus), Q9WTS8 (protein) MWWPMLWAFPVLLCLCSSQALGQESGACPDVKIVGLGAQDKVAVIQSCPSFPGPPGPKGEPGSPAGRGERGLQGSPGKMGPPGSKGEPGTMGPPGVKGEKGERGTASPLGQKELGDALCRRGPRSCKDLLTRGIFLTGWYTIYLPDCRPLTVLCDMDVDGGGWTVFQRRVDGSINFYRDWDSYKRGFGNLGTEFWLGNDYLHLLTANGNQELRVDLREFQGQTSFAKYSSFQVSGEQEKYKLTLGQFLEGTAGDSLTKHNNMAFSTHDQDNDTNGGKNCAALFHGAWWYHDCHQSNLNGRYLPGSHESYADGINWLSGRGHRYSYKVAEMKIRAS",glycan array binding signal (z-score),GlcNAc(b1-6)GalNAc,-0.12
same,glycan array binding signal (z-score),GlcNAc3Prop(b1-4)GlcNAc,-0.099
same,glycan array binding signal (z-score),Kdn(a2-3)Gal(b1-3)GlcNAc,-0.114
same,glycan array binding signal (z-score),Kdn(a2-3)Gal(b1-4)GlcNAc,-0.096
same,glycan array binding signal (z-score),[1],-0.068
same,glycan array binding signal (z-score),[2],-0.079
same,glycan array binding signal (z-score),Man(a1-2)Man(a1-3)Man,-0.107
same,glycan array binding signal (z-score),[3],-0.093
same,glycan array binding signal (z-score),[4],-0.092
same,glycan array binding signal (z-score),[5],-0.07
same,glycan array binding signal (z-score),[6],-0.063
same,glycan array binding signal (z-score),[7],0.013
same,glycan array binding signal (z-score),[8],-0.096
same,glycan array binding signal (z-score),Man(a1-3)[Man(a1-6)]Man,-0.085
same,glycan array binding signal (z-score),[9],-0.036
same,glycan array binding signal (z-score),[10],-0.064
same,glycan array binding signal (z-score),[11],-0.03
same,glycan array binding signal (z-score),[12],-0.067
same,glycan array binding signal (z-score),Man(a1-6)Man,-0.108
same,glycan array binding signal (z-score),Man(b1-4)GlcNAc,-0.099
same,glycan array binding signal (z-score),Neu5Ac(a2-3)Gal,-0.112
same,glycan array binding signal (z-score),[13],-0.106
same,glycan array binding signal (z-score),[14],-0.114
same,glycan array binding signal (z-score),[15],-0.082
same,glycan array binding signal (z-score),[16],-0.115
same,glycan array binding signal (z-score),[17],-0.102
same,glycan array binding signal (z-score),[18],-0.011
same,glycan array binding signal (z-score),[19],-0.095
same,glycan array binding signal (z-score),[20],-0.028
same,glycan array binding signal (z-score),[21],-0.084
same,glycan array binding signal (z-score),[22],-0.064
same,glycan array binding signal (z-score),[23],-0.085
same,glycan array binding signal (z-score),[24],0.325
same,glycan array binding signal (z-score),Neu5Ac(a2-3)Gal(b1-4)Glc,0.022
same,glycan array binding signal (z-score),[25],-0.096
same,glycan array binding signal (z-score),[26],-0.058
same,glycan array binding signal (z-score),[27],-0.027
same,glycan array binding signal (z-score),[28],-0.098
same,glycan array binding signal (z-score),[29],-0.097
same,glycan array binding signal (z-score),[30],-0.015
same,glycan array binding signal (z-score),[31],-0.084
same,glycan array binding signal (z-score),[32],-0.098
same,glycan array binding signal (z-score),[33],-0.104
same,glycan array binding signal (z-score),[34],0.064
